# Assay results as given in the BET-seq Pho4 binding data (Le et al. 2018).
# Some of the results follow. Values were computed here from the reads of four pooled replicates and scatter widely.
# Target: T1, Pho4 (S. cerevisiae) (UniProt P07270)
# T1 sequence: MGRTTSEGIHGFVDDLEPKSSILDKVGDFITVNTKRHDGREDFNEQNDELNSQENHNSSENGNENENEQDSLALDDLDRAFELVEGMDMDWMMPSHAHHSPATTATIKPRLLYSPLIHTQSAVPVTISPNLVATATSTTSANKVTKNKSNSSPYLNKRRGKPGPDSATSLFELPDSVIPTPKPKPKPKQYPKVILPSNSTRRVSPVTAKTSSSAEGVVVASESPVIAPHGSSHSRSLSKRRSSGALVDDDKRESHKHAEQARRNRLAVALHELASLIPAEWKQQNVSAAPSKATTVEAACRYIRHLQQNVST
# Test: relative binding free energy (BET-seq); higher = weaker binding
# Settings: reference: library average
row,Sequence,relative binding free energy
1,GCGGACACGTGCTGGT,0.11 kcal/mol
2,AGTTACACGTGATTAG,0.13 kcal/mol
3,GATGTCACGTGGTTGA,0.11 kcal/mol
4,TTTCTCACGTGTGGCT,0.23 kcal/mol
5,TTTGACACGTGTTCAT,0.05 kcal/mol
6,TTGAGCACGTGGTGTC,-0.27 kcal/mol
7,GGATTCACGTGGAGAG,0.28 kcal/mol
8,TTGGGCACGTGGTCCT,-0.17 kcal/mol
9,TTGAACACGTGCGATT,0.16 kcal/mol
10,CGGTCCACGTGGTTGT,-0.12 kcal/mol
11,GTGTGCACGTGTTGTG,0.01 kcal/mol
12,GTAGTCACGTGTATGG,0.17 kcal/mol
13,TAAGGCACGTGGATGC,0.04 kcal/mol
14,CGTAGCACGTGGTATG,-0.17 kcal/mol
15,GGGTACACGTGTTACT,0.19 kcal/mol
16,TTAGCCACGTGGGAAG,-0.1 kcal/mol
17,TATTGCACGTGTAACG,0.16 kcal/mol
18,ACGGTCACGTGGGAGT,0.04 kcal/mol
19,AAGTGCACGTGGGACT,-0.03 kcal/mol
20,TTTATCACGTGGTAAT,0.01 kcal/mol
21,GTGTGCACGTGGCGAG,-0.1 kcal/mol

row,Sequence,relative binding free energy
1,GAATGCACGTGTTAAG,-0.01 kcal/mol
2,CTGGCCACGTGGATGG,-0.08 kcal/mol
3,TTAAGCACGTGGTGGA,-0.23 kcal/mol
4,TATTGCACGTGCCGTT,-0.11 kcal/mol
5,CAGTGCACGTGGTCGT,-0.18 kcal/mol
6,GTTGACACGTGGAAGG,0.14 kcal/mol
7,CGTTCCACGTGTTTGT,0.07 kcal/mol
8,GGGGACACGTGAATAA,0.47 kcal/mol
9,GTGCTCACGTGTGGTT,0.26 kcal/mol
10,GGTATCACGTGTTTGA,0.18 kcal/mol
11,GATTCCACGTGTGGTG,0.01 kcal/mol
12,GCGGACACGTGGCGTG,-0.11 kcal/mol
13,GGTGTCACGTGAAAAT,0.41 kcal/mol
14,AATTGCACGTGTTGGG,0.01 kcal/mol
15,TAGGGCACGTGGGAAC,-0.2 kcal/mol
16,TGTTTCACGTGCTAGG,0.18 kcal/mol
17,ATAGGCACGTGTCAAT,0.01 kcal/mol
18,CGGTGCACGTGGACTG,-0.05 kcal/mol
19,CGTGTCACGTGGCGTA,-0.05 kcal/mol
20,CGAGTCACGTGTAAGG,0.13 kcal/mol
21,TTGCACACGTGTCTGG,0.1 kcal/mol

row,Sequence,relative binding free energy
1,GCAGGCACGTGGGGGT,-0.15 kcal/mol
2,GGTTTCACGTGTGCGA,0.39 kcal/mol
3,GGGAGCACGTGTTGGG,0.01 kcal/mol
4,GTACTCACGTGTAGTG,0.23 kcal/mol
5,TGTGTCACGTGGCAAA,0.01 kcal/mol
6,TAAGGCACGTGAGAGA,0.04 kcal/mol
7,AGGTGCACGTGTAGAG,-0.09 kcal/mol
8,GGTCACACGTGGAGGT,0.01 kcal/mol
9,GCTGTCACGTGTAGAG,0.12 kcal/mol
10,GTTGCCACGTGGTAGT,-0.13 kcal/mol
11,ATGATCACGTGAGATT,0.24 kcal/mol
12,TGCCTCACGTGGATGG,0.19 kcal/mol
13,GAGTGCACGTGTAGGT,-0.02 kcal/mol
14,CTTAACACGTGGTGGA,-0.09 kcal/mol
15,CGGGCCACGTGGCGTG,-0.24 kcal/mol
16,TTTCTCACGTGAGGCG,0.32 kcal/mol
17,GTTATCACGTGTGGGA,0.28 kcal/mol
18,GAAGTCACGTGTGAGT,0.19 kcal/mol
19,AGGCACACGTGGGTTG,-0.08 kcal/mol
20,GGCCTCACGTGAAGGG,0.43 kcal/mol
21,TCAGTCACGTGGGAGA,0.08 kcal/mol
